Measurements as given in the supplement of paper PMC10369915.
This is one part of the list. Rule as the data show it: active = 3.2 or more and inactive = the rest. Only a few entries rise above the background.

Experiments:
Test in all cases: enrichment score (SH2-bound / input frequency) (ratio); bacterial display of known human phosphotyrosine sites (pTyr-Var adds point mutants) read by sequencing; higher = stronger binding; tyrosines were phosphorylated by kinases first
Settings in all cases: peptide library: pTyr-Var
[1] = molecular target: SHP2 C-SH2 domain E139D
[2] = molecular target: SHP2 C-SH2 domain wild-type
[3] = molecular target: SHP2 N-SH2 domain L43F
[4] = molecular target: SHP2 N-SH2 domain T42A
[5] = molecular target: SHP2 N-SH2 domain T52S
[6] = molecular target: SHP2 N-SH2 domain wild-type

Measured: enrichment score
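Also: displayed peptides selected on beads carrying the immobilized SH2 domain, with library peptides lacking any tyrosine serving as negative controls.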

B1: ANK1_Y624_R619H (peptide)
chain: HSLLQYGGSAN
inactive: [1] 0.919 | [2] 0.887 | [3] 0.806 | [4] 0.635 | [5] 0.892 | [6] 1.1

B2: ARCN1_Y310 (peptide)
chain: ISDDKYGRIRL
inactive: [1] 0.656 | [2] 0.728 | [3] 0.587 | [4] 0.586 | [5] 0.591 | [6] 0.755

B3: APC_Y96_R99W (peptide)
chain: MSLRSYGSWEG
inactive: [1] 0.194 | [3] 0.639 | [4] 1.34 | [5] 0.411 | [6] 1

B4: APTX_Y214_A212V_YF (peptide)
chain: FPKVRYHWLVL
inactive: [1] 1.97 | [2] 2 | [3] 1.66 | [4] 1.42 | [5] 1.79 | [6] 2.11

B5: AR_Y395_P392R (peptide)
chain: ENRLDYGSAWA
inactive: [1] 0.605 | [2] 0.481 | [3] 0.63 | [4] 0.453 | [5] 0.562 | [6] 0.597

B6: AR_Y552_P549S (peptide)
chain: VLSIDYYFPPQ
inactive: [1] 1.93 | [2] 2.25 | [3] 2.28 | [4] 2.44 | [5] 2.51 | [6] 1.94

B7: ASS1_Y113_G117S (peptide)
chain: REGAKYVSHSA
inactive: [1] 0.529 | [2] 0.492 | [3] 0.465 | [4] 0.437 | [5] 0.493 | [6] 0.479

B8: APTX_Y214_H215R (peptide)
chain: YPKARYRWLVL
inactive: [1] 1.12 | [2] 0.765 | [3] 0.823 | [4] 0.695 | [5] 0.853 | [6] 0.788

B9: ANXA1_Y335 (peptide)
chain: ETKGDYEKILV
inactive: [1] 0.703 | [2] 1.08 | [3] 1.15 | [4] 0.913 | [5] 1.11 | [6] 1.4

B10: ARHGAP1_Y365_R369C (peptide)
chain: LPEENYQVLCF
inactive: [1] 1.08 | [2] 2.26 | [3] 1.41 | [4] 0.808 | [5] 0.564 | [6] 1.4

B11: APTX_Y214_K211Q (peptide)
chain: YPQARYHWLVL
inactive: [1] 2 | [2] 1.92 | [3] 1.99 | [4] 1.78 | [5] 1.95 | [6] 1.88

B12: APOA4_Y310_V307L (peptide)
chain: RRLEPYGENFN
inactive: [1] 0.925 | [2] 0.776 | [3] 0.949 | [4] 0.64 | [5] 0.756 | [6] 0.669

B13: APOA1_Y53_G50R (peptide)
chain: DSRRDYVSQFE
inactive: [1] 0.794 | [2] 0.612 | [3] 0.669 | [4] 1.18 | [5] 0.495 | [6] 0.577

B14: ANXA3_Y15_S19N (peptide)
chain: GTVRDYPDFNP
inactive: [1] 0.674 | [2] 0.7 | [3] 0.672 | [4] 0.669 | [5] 0.645 | [6] 0.682

B15: AR_Y916_K911R (peptide)
chain: RVKPIYFHTQG
active: [1] 5.69 | [2] 4.51 | [3] 5 | [4] 3.6 | [5] 4.75 | [6] 4.47

B16: APTX_Y209 (peptide)
chain: VIKDKYPKARY
inactive: [1] 1.3 | [2] 1.52 | [3] 1.34 | [4] 1.29 | [5] 1.28 | [6] 1.42

B17: APOE_Y180 (peptide)
chain: KRLAVYQAGAR
inactive: [1] 1.14 | [2] 0.862 | [3] 0.919 | [4] 0.812 | [5] 0.8 | [6] 0.92

B18: ASS1_Y322_G324S (peptide)
chain: FAELVYTSFWH
inactive: [1] 2.02 | [2] 1.73 | [3] 2.08 | [4] 1.49 | [5] 1.69 | [6] 1.71

B19: ARMC9_Y107_YF (peptide)
chain: IHFAIYLLKFS
active: [1] 3.22
inactive: [2] 2.54 | [3] 2.76 | [4] 2.48 | [5] 2.61 | [6] 2.56

B20: ANXA3_Y295_F291S (peptide)
chain: ESKKHYGYSLY
inactive: [1] 0.621 | [2] 0.504 | [3] 0.552 | [4] 0.578 | [5] 0.491 | [6] 0.587

B21: ASS1_Y359_R363L (peptide)
chain: LKGQVYILGLE
inactive: [1] 1.37 | [2] 0.938 | [3] 0.932 | [4] 1.05 | [5] 1.07 | [6] 0.916

B22: ASB2_Y162 (peptide)
chain: RETPLYKACER
inactive: [1] 0.819 | [2] 0.678 | [3] 0.387 | [4] 0.559 | [5] 0.488 | [6] 0.494

B23: ASIC2_Y357_D354G (peptide)
chain: EKGSNYCLCRT
inactive: [1] 0.676 | [2] 0.527 | [3] 0.759 | [4] 0.482 | [5] 0.642 | [6] 0.69

B24: ARFGEF2_Y797 (peptide)
chain: MTKEQYIKMNR
inactive: [1] 0.925 | [2] 0.676 | [3] 0.621 | [4] 0.717 | [5] 0.715 | [6] 0.758

B25: ANKZF1_Y572_R569W (peptide)
chain: RAWPPYTVAAD
inactive: [1] 0.864 | [2] 0.887 | [3] 1.18 | [4] 0.491 | [5] 0.608 | [6] 0.954

B26: ANG_Y38_Y38H (peptide)
chain: FLTQHHDAKPQ
inactive: [1] 1.36 | [2] 1.22 | [3] 1.43 | [4] 1.16 | [5] 1.31 | [6] 1.21

B27: APTX_Y209_A212V_YF (peptide)
chain: VIKDKYPKVRF
inactive: [1] 1.46 | [2] 1.31 | [3] 1.3 | [4] 0.989 | [5] 1.28 | [6] 1.37

B28: AR_Y552_L548F_YF (peptide)
chain: VFPIDYFFPPQ
inactive: [1] 1.8 | [2] 1.61 | [3] 1.78 | [4] 1.92 | [5] 1.99 | [6] 1.85

B29: ASL_Y376 (peptide)
chain: TDLAYYLVRKG
inactive: [1] 0.818 | [2] 0.698 | [3] 0.717 | [4] 0.836 | [5] 0.779 | [6] 0.608

B30: ANK2_Y1455_E1458G (peptide)
chain: ITLPIYTKGSE
inactive: [1] 0.903 | [2] 0.958 | [3] 1.1 | [4] 0.85 | [5] 0.86 | [6] 1.03

B31: AQP6_Y231 (peptide)
chain: LASLIYNFVLF
inactive: [2] 3.16 | [3] 2.73 | [4] 2.76 | [5] 2.35 | [6] 2.88
active: [1] 3.26

B32: AR_Y858_R856C (peptide)
chain: CSRCFYQLTKL
inactive: [1] 2.6 | [2] 2.6 | [3] 2.71 | [4] 2.37 | [5] 2.71 | [6] 2.03

B33: APOB_Y276_YF (peptide)
chain: SFKNKYGMVAQ
inactive: [1] 0.768 | [2] 0.59 | [3] 0.722 | [4] 0.623 | [5] 0.696 | [6] 0.738

B34: APBB1IP_Y340_R335W (peptide)
chain: WASGIYYVPKG
inactive: [1] 1.4 | [2] 1.44 | [3] 1.21 | [4] 1.19 | [5] 1.47 | [6] 1.33

B35: ANO1_Y981_G983R (peptide)
chain: APSHAYHRGVL
inactive: [1] 1.2 | [2] 1.05 | [3] 1 | [4] 0.93 | [5] 1.08 | [6] 1.1

B36: APTX_Y214_R213H_YF (peptide)
chain: FPKAHYHWLVL
active: [1] 4.21 | [2] 3.54 | [3] 4.06 | [4] 3.46 | [5] 3.26 | [6] 3.96

B37: ANO1_Y981 (peptide)
chain: APSHAYHGGVL
inactive: [1] 1.13 | [2] 0.844 | [3] 0.879 | [4] 0.877 | [5] 0.784 | [6] 1.17

B38: ARFGAP3_Y473_Q468H (peptide)
chain: HPAGNYSLSSV
inactive: [1] 0.744 | [2] 0.764 | [3] 0.709 | [4] 0.858 | [5] 1.03 | [6] 0.656
